Assay results from the antibiotic and cytotoxicity screens of Wong et al. (2023).
The other results are listed elsewhere or left out.

Experiments:
HSkMC = human skeletal muscle cells; assay: cytotoxicity call (relative viability < 0.9); conditions: 10 µM
HepG2 = assay: cytotoxicity call (relative viability < 0.9); conditions: 10 µM
S. aureus RN4220 = assay: growth inhibition call (relative growth <= 0.2); conditions: 50 µM

SMILES | cytotoxicity call (HSkMC) | cytotoxicity call (HepG2) | growth inhibition call (S. aureus RN4220)
O=C(O)CC(O)(CC(=O)O)C(=O)O | inactive | inactive | inactive
COc1ccc(CN(C)C[C@H]2OCCCC[C@H](C)Oc3ccc(NS(=O)(=O)c4cccs4)cc3C(=O)N([C@H](C)CO)C[C@@H]2C)cc1 | inactive | inactive | inactive
CCCN(C)C[C@H]1OCCCC[C@@H](C)Oc2ccc(NC(=O)C3CCCCC3)cc2C(=O)N([C@@H](C)CO)C[C@H]1C | inactive | inactive | inactive
C[C@H]1CCCCO[C@@H](CN(C)C(=O)c2ccncc2)[C@@H](C)CN([C@@H](C)CO)C(=O)c2cc(NC(=O)C3CCCCC3)ccc2O1 | inactive | inactive | inactive
C[C@@H]1CCCCO[C@@H](CN(C)Cc2ccc3c(c2)OCO3)[C@@H](C)CN([C@@H](C)CO)C(=O)c2cc(NS(=O)(=O)c3ccc(Cl)cc3)ccc2O1 | inactive | active | inactive
C[C@@H]1CN([C@@H](C)CO)C(=O)CCCn2nncc2CO[C@@H]1CN(C)C(=O)Nc1ccc(N2CCN(C)CC2)cc1 | inactive | inactive | inactive
C[C@@H]1CN([C@H](C)CO)S(=O)(=O)c2ccc(C#Cc3ccncc3)cc2O[C@@H]1CN(C)C(=O)c1ccncc1 | inactive | active | inactive
COC(=O)c1ccc(=O)oc1 | inactive | inactive | inactive
CCCN(C)C[C@H]1Oc2cc(C#Cc3cccc(OC)c3)ccc2S(=O)(=O)N([C@@H](C)CO)C[C@H]1C | inactive | inactive | inactive
C[C@@H]1CN([C@@H](C)CO)C(=O)c2cc(NC(=O)Cc3ccccc3)ccc2O[C@@H](C)CCCCO[C@@H]1CN(C)C(=O)C1CCCCC1 | inactive | inactive | inactive
COCCOC(=O)N1C(=O)[C@@]2(c3cc(C#CCC(C(=O)OC)C(=O)OC)ccc31)[C@H](C(=O)NC[C@H](O)c1ccccc1)[C@H]1C(=O)O[C@H](c3ccccc3)[C@H](c3ccccc3)N1[C@@H]2c1ccc(OCCO)cc1 | inactive | inactive | inactive
C[C@@H]1CCCCO[C@@H](CN(C)C(=O)NC2CCCCC2)[C@H](C)CN([C@H](C)CO)C(=O)c2cc(NC(=O)c3ccncc3)ccc2O1 | inactive | inactive | inactive
C[C@@H]1CCCCO[C@@H](CN(C)S(C)(=O)=O)[C@H](C)CN([C@@H](C)CO)C(=O)c2cc(NS(=O)(=O)c3ccc(F)cc3)ccc2O1 | inactive | inactive | inactive
CO[C@@H](CN(C)S(=O)(=O)c1ccc(Cl)cc1)[C@H](C)CN([C@@H](C)CO)S(=O)(=O)c1cccc(Cl)c1 | inactive | inactive | inactive
COCC#Cc1ccc2c(c1)O[C@H](CN(C)Cc1ccc3c(c1)OCO3)[C@@H](C)CN([C@@H](C)CO)S2(=O)=O | inactive | inactive | inactive
C[C@@H]1CN([C@@H](C)CO)C(=O)c2cc(NS(=O)(=O)c3cn(C)cn3)ccc2O[C@@H](C)CCCCO[C@@H]1CN(C)C(=O)c1ccncc1 | inactive | inactive | inactive
C[C@@H]1CN([C@@H](C)CO)C(=O)c2cc(C#Cc3cccc(F)c3)cnc2O[C@@H]1CN(C)Cc1ccccn1 | inactive | inactive | inactive
CC/C=C\C/C=C\C/C=C\CCCCCCCC(=O)O | inactive | inactive | inactive
C[C@H]1CN([C@@H](C)CO)C(=O)Cc2cc(NC(=O)Cn3cnnn3)ccc2O[C@H]1CN(C)Cc1ccc(Cl)c(Cl)c1 | inactive | inactive | inactive
C[C@@H]1CN([C@H](C)CO)C(=O)Cc2cc(NC(=O)Cc3ccccc3)ccc2O[C@@H]1CN(C)S(=O)(=O)c1ccc(F)cc1 | inactive | inactive | inactive
CC(C)(C)Oc1ccc(O)cc1 | inactive | inactive | inactive
C[C@@H]1CCCCO[C@@H](CN(C)C(=O)c2ccccc2)[C@@H](C)CN([C@H](C)CO)C(=O)c2cc(NC(=O)CCCCCC(=O)Nc3ccccc3N)ccc2O1 | inactive | inactive | inactive
CCOCC(=O)Nc1cc(C)on1 | inactive | inactive | inactive
C[C@@H]1CN([C@H](C)CO)C(=O)CCCn2nncc2CO[C@H]1CN(C)S(C)(=O)=O | inactive | inactive | inactive
NC(=O)NC1NC(=O)NC1=O (stereo not drawn) | inactive | inactive | inactive
CN1CCN(C(=O)C[C@H]2CC[C@H](NC(=O)Cc3ccccn3)[C@H](CO)O2)CC1 | inactive | inactive | inactive
